Reference: the supplement of paper PMC3334620
In all, about 33,000 sequences were measured (“E-score (-0.5 to 0.5)”: median about -0.032, highest 2% from about 0.36 on). The list shows a part of the results.

Molecular target: T1, Sko1 (UniProt Q02100)
T1 sequence: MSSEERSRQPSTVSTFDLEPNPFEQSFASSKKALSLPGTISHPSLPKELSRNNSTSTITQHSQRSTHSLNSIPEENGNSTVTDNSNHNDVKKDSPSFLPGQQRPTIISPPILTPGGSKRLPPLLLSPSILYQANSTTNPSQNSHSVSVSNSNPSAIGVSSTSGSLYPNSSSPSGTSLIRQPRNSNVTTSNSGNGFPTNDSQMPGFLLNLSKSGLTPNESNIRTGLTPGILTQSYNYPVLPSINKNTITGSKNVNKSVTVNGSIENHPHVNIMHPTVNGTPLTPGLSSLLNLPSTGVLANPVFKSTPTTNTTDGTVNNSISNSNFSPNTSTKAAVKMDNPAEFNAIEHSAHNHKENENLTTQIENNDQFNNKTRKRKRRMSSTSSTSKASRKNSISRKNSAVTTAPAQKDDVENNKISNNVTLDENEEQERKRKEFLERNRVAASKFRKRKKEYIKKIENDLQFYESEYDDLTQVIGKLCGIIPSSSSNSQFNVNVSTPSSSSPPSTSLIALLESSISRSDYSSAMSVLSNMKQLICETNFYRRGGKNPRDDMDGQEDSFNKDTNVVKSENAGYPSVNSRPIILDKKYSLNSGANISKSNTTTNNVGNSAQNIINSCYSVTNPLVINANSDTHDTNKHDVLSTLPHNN
Assay: PBM E-score (8-mer binding enrichment) (E-score (-0.5 to 0.5)); higher = stronger / more preferred TF binding; most listed sequences are background and not binding sites
Conditions: protein concentration: 200 nM; construct: GST-full length
Protocol: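 Universal 'all 10-mer' protein binding microarrays (Agilent AMADID 015681) probed with GST-tagged S. cerevisiae TFs (full-length or DBD) made by in vitro transcription/translation (PURExpress), about 100-200 nM. Bound TF was detected with fluorescent anti-GST. Each ungapped 8-mer (which stands for itself and its reverse complement) is scored by the PBM enrichment score (E-score), a modified Wilcoxon-Mann-Whitney statistic from -0.5 to +0.5, computed with the Universal PBM Analysis Suite. Scale: above 0.35 generally sequence-specific binding.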

Sequence	PBM E-score
ACGGCACT	-0.14
AAAACTCA	0.0634
GAATGATA	0.228
CCGTCCTA	-0.118
ACAGCTAT	-0.133
CAGTGACG	0.408
GCTGTTAA	0.164
ACGCGTTG	0.232
CTTACGCC	0.193
ATCGGGTA	-0.111
TACATCGA	0.0499
AGGAATCC	-0.243
CCAGTTCG	-0.0346
CAGGCCCA	-0.133
GTACCAAC	0.219
ATCGAAAC	0.0876
GCCTAAAA	-0.123
CCTGCGCA	-0.179
ACGCTGAC	0.236
CTCCTCGC	-0.259
ATATGCGG	-0.0141
AGCCGCTC	-0.101
AGCGCCAT	-0.295
ACGGAGTG	-0.0307
CAAGTACC	-0.0542

Sequence	PBM E-score
AGGTCGGC	-0.336
AGATCCCT	-0.16
AACTCTAG	0.125
AGCCGCTG	-0.164
CACCTTCA	-0.146
ACCCGTGA	0.0498
ACCACACC	-0.165
CTGCTAAC	-0.187
GGGACCCC	-0.328
AAGGAGGT	-0.361
CTTCCCTA	-0.242
ACTCCAAA	0.00489
ACCATCCC	-0.118
AGTTGCCA	-0.218
CCTGTCGA	-0.255
CTGGTAAC	0.038
AAAATGAG	0.162
AATGACGG	0.388
CACAGGGG	-0.254
CACTGTGC	-0.00954
GGGGAAGA	-0.0521
ATCGCTAG	-0.0122
TGCGAACA	0.0843
AAGACAGT	-0.0571
AGTAGAAG	-0.0555

Sequence	PBM E-score
ACAGGGGC	-0.25
CCCCGAAC	-0.317
CAGTGGTA	0.0373
AAGGGGAA	-0.147
GCACCCAC	0.144
AATCTGGG	-0.0944
ATAAGCGG	0.015
AACAGACT	0.0398
AGCTAGGA	-0.3
ACTAGGAT	0.0968
CCCGTACC	-0.273
CAGTTAGC	-0.181
AAACTGAG	-0.159
AACGATCA	0.011
GTGGCCGA	-0.0715
AGCAGGAC	-0.0677
GTGGATTA	0.0711
CACTCAGA	-0.0015
GATTCTCC	-0.28
ATGACCGG	-0.0369
TATGTGGA	0.138
AGTATTTC	0.108
CCCCTGAC	-0.0317
CCCTTCAA	-0.0706
AAACTCGT	0.18

Sequence	PBM E-score
TAGGAGAA	-0.0901
AAATCGGT	-0.125
ACTCGAGC	0.00328
AACGTTTC	0.199
GGACGACA	0.0412
GGTAGTGA	-0.115
CGCAGAAA	0.0541
CAGTAAAG	0.0535
ATTGGCCC	-0.325
CCGCGGAC	-0.315
ATACTACA	0.211
AACTTAAA	0.168
CACCAGCG	-0.152
AATGAGAG	-0.0546
AACACTGT	0.0285
CTTGCCCA	-0.163
GACGGAAA	0.0994
ACACGGGG	-0.242
AGTCAGTG	-0.212
AGGAAACC	-0.104
AAATTTCG	0.218
AGCAGCCT	-0.241
GGGTAAAA	0.149
CCGTAAAA	0.053
GCATTCGA	-0.00419

Sequence	PBM E-score
CAGCAAAA	0.139
CCCCCGCG	-0.254
TCGTCTCA	-0.0858
CTCTTACC	0.00012
CACCAACG	-0.063
AAAGCTAC	-0.0321
CTCCTCTA	-0.229
CTTAAAAC	0.151
CATTAAAG	0.132
CGCCGGCG	-0.192
CGCTAGAC	-0.184
ACAACACC	-0.0425
AATCGGGT	0.047
CAGTCGTA	0.0343
GAAGTACC	-0.088
GTCTCGCA	-0.11
GAAATAGA	0.191
GGCCCCCC	-0.429
TATAGAAA	0.0683
AAAGTACC	-0.0499
CCTCCGCG	-0.275
AGACCGTC	-0.227
ACATAGGC	0.0432
CTTCTACC	-0.3
CCGATGTA	-0.0112

Sequence	PBM E-score
ATAGCCAC	0.0887
CTGCGGGC	-0.314
CTGCGGCC	-0.273
GTTCGCAA	0.212
AATATCAG	0.0929
ACTATAGT	0.222
ATCGAAAA	0.159
GCGTCACC	0.341
CAGAAACG	0.204
CTGAAATA	0.0841
AACCTTCC	-0.0961
TAATTACA	0.263
AAAGTTTA	0.132
GATGAAAC	0.113
CGGGCGCA	-0.219
GGTTTACA	0.112
AAGGCCTG	-0.243
ACCATACG	0.27
AGCGAATG	-0.219
AGCGGGGC	-0.21
ATTAGCTG	0.0251
AAACATGC	0.0851
AGTAACGC	0.035
CCATAAGA	-0.0709
GAACTAGC	-0.187

Sequence	PBM E-score
CTCATGAG	0.135
ATCCAAAA	0.0858
GCTTCAGA	-0.2
AGATTCAG	-0.0409
CAAAGGGG	-0.222
CCTAGGCC	-0.252
ACTCTCCT	-0.151
AGCCAGCG	-0.188
CGGAGTGA	0.0511
ACTCTCTA	-0.188
AATGTCAG	-0.0112
CAAAGATC	0.0358
GCCGACGC	-0.163
ACCGGCAA	-0.226
GACGACAC	0.235
CAGATGAA	0.0113
AACAGCCG	-0.186
ACAGCATA	0.115
AGTTTACC	0.0666
GCAGCGCA	-0.186
CTTTATCA	0.0572
CACAACTC	-0.0292
